# From PubChem BioAssay AID686971 (National Center for Advancing Translational Sciences (NCATS), 2013)
# In all, about 360,000 compounds went through this assay and about 7,500 (2.1%) were called active. Inconclusive means that the source gave no clear call. Such entries were picked first, then a sample of the others. The call rests on the fitted dose curve; in most records, active means well fitted cell-killing curve with a large enough effect; inconclusive means small, poorly fitted or top-dose-only effect, or effect the other way, or another doubt; inactive means no such curve, though single readings can be large or run the other way. No potency is given beside an inconclusive call; the fits are too rough.
# Experiment: qHTS for induction of synthetic lethality in tumor cells producing 2HG: qHTS for the HT-1080-IDH1KD cell line;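 on activity, negative = toxicity: 0% = DMSO wells and -100% = cell-free medium wells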
# Details: HT-1080 IDH1 knockdown viability, ATP luminescence, 48 h; activity, negative = toxicity: at 46.1 µM (top of the series) unless noted
# Procedure, shortened: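 Cytotoxicity counter-line: IDH1KD HT-1080, 48 h, CellTiter-Glo. Curves classed by r2, magnitude and activity.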
# Potency means the concentration at half of the fitted maximal effect; tags describe the fitted curve by direction and shape.
Compound,Potency,"activity, negative = toxicity"
CC(=O)Nc1ccc(NC(=O)CSc2ncc(C(=O)Nc3ccccc3)c(=O)n2C)cc1,active: 14.6 µM,
Cc1cc(=O)oc(C)c1C(=O)NC1CCCCCCC1,"inconclusive [rising, single point]",
CCSC(=S)c1c(C)[nH]n(-c2ccccc2)c1=O,"inconclusive [cytotoxic, single point]",
COc1ccc(/C=C/C(=O)c2ccccc2)cc1COc1ccccc1F,"inconclusive [cytotoxic, single point]",
CCOC(=O)C1=C(C(=O)OCC)N(CC)CCC1=O,inactive,
Cc1ccc2nc(-c3cccc(Br)c3)c(Cc3ccccn3)n2c1,"inconclusive [cytotoxic, single point]",
CSC1=NC(C(Cl)(Cl)Cl)N=C(c2ccc(C)cc2)N1 (configuration not stated),active: 0.651 µM,
COc1ccc(CCNC(=O)c2cc(-c3ccc(C)c(C)c3O)n[nH]2)cc1OC,"inconclusive [cytotoxic, single point]",
O=C(Nc1nc2ccccc2c(=O)[nH]1)c1ccccc1SCc1ccccc1,"inconclusive [cytotoxic, single point]",
CC(=O)Nc1ccc(OCC(O)CN2CCN(c3cc(Cl)ccc3C)CC2)cc1 (configuration not stated),"inconclusive [cytotoxic, single point]",
CCOC(=O)c1[nH]c(C)c(C(=O)Nc2cccc(Cl)c2C)c1C,active: 7.94 µM,
COc1ccc(CNC(=O)c2sc(=O)n(Cc3ccc(S(=O)(=O)N(C)C)cc3)c2C)cc1,"inconclusive [cytotoxic, single point]",
CC(=O)NC(c1ccccc1)c1nc(-c2cccc(C(F)(F)F)c2)cs1 (configuration not stated),inactive,
COc1cc(NC(=O)C2CCC(CNc3c(N4CCC(C)CC4)c(=O)c3=O)CC2)cc(OC)c1 (configuration not stated),inactive,
Cc1ccc(Cl)cc1NC(=S)NCCCSC1CCCCC1,active: 18.4 µM,
Cc1cc(C)n(-c2cc(C(C)(C)C)nc3c(-c4ccccc4)cnn23)n1,"inconclusive [cytotoxic, single point]",
CN1CCN(C(c2ccc(Cl)cc2)c2cc(Cl)c3cccnc3c2O)CC1 (configuration not stated),active: 23.1 µM,
CCCOc1ccc(NC(=O)CC2C(=O)N(CC)C(=S)N2Cc2cccs2)cc1 (configuration not stated),active: 20 µM,
CCc1c(C(=O)NN2C(=O)C3CCCCC3C2=O)csc1C (configuration not stated),inactive,
C=CCOC(=O)C1=C(C)NC(SC)=C(C#N)C1c1ccc(OCC)cc1 (configuration not stated),"inconclusive [cytotoxic, single point]",
S=C(NCc1ccccc1)NCc1ccccc1,"inconclusive [cytotoxic, single point]",
C=CCNS(=O)(=O)c1ccc2nsnc2c1,inactive,
Cc1ccc(S(=O)(=O)N2CCCCC2CCNC(=O)C(=O)NCC2CCCO2)cc1 (configuration not stated),inactive,
O=C(c1ccco1)N1CCc2[nH]nc(-c3ccc(Cl)cc3)c2C1,inactive,

Compound,Potency,"activity, negative = toxicity"
Cn1nc(C(F)(F)F)cc1C(=O)Nc1ccc(Cl)cc1,"inconclusive [cytotoxic, single point]",
CC(C)c1ccccc1NC(=O)CSc1n[nH]c(=O)n1C1CC1,inactive,
CCCNC(=O)c1nnsc1S(=O)(=O)c1ccc(Cl)cc1,"inconclusive [cytotoxic, single point]",
Cn1c(SCc2cccc([N+](=O)[O-])c2)nc2c(c1=O)SCC2,"inconclusive [cytotoxic, partial curve, poor fit]",
CCCS(=O)(=O)NC(=O)C1(C)CCCN(C(=O)c2ccc(C#N)cc2)C1 (configuration not stated),"inconclusive [rising, partial curve]",
CCCCCOc1ccc(C(=O)OC(C)C(=O)NCc2ccco2)cc1 (configuration not stated),active: 20.6 µM,
O=C(COc1cccc(C(F)(F)F)c1)NNC(=O)c1ccc(=O)[nH]c1,inactive,
Cc1ccc(-c2noc(CN(C(=O)c3cccs3)C(C)C)n2)cc1,inactive,
O=C(C1=C[C@H](c2ccc(C(F)(F)F)cc2)C[C@H](OCCCCO)O1)N1CCN(Cc2ccc3c(c2)OCO3)CC1,,inconclusive: -34.4% [cytotoxic]
CCOC(=O)c1c(C)[nH]c(C(=O)CSc2nc3ccccc3o2)c1C,inactive,
CCN1C(=O)/C(=C\N(C(C)=O)c2ccccc2)OC1=S,"inconclusive [cytotoxic, single point]",
COc1cccc(N/C(SCc2cccc([N+](=O)[O-])c2)=C(/C#N)C(N)=O)c1,active: 16.4 µM,
COc1ccc(-c2nc3c(c(=O)[nH]c(=O)n3Cc3ccccc3)n2Cc2ccccc2)cc1,"inconclusive [cytotoxic, single point]",
COc1ccc(S(=O)(=O)N2CCCCCC2)cc1C(=O)OC(C)C(N)=O (configuration not stated),,inconclusive: -13.5% [cytotoxic]
O=C(CC(=O)c1ccccc1)Nc1ccc(Cl)cc1,"inconclusive [cytotoxic, single point]",
Cc1ccc(S(=O)(=O)NCc2ccncc2)cc1,active: 6.51 µM,
C=CCN1CCc2c(cc(O)c(O)c2Cl)C(c2ccccc2)C1 (configuration not stated),"inconclusive [cytotoxic, single point]",
O=[N+]([O-])c1ccc(/C=C/C2=NN(c3ccccc3)C(c3ccco3)C2)o1 (configuration not stated),"inconclusive [cytotoxic, partial curve]",
CCCN1CCN(CCCNC(=O)c2cc3c(s2)-c2c(C)cccc2OC3)CC1,active: 18.4 µM,
C=CCc1ccc(OCCOCCOc2cccc3ccc(C)nc23)c(OC)c1,"inconclusive [cytotoxic, single point]",
CC(=O)Oc1ccc(C(=O)Nc2ccc(C3(C#N)CCCC3)cc2)cc1,"inconclusive [cytotoxic, partial curve]",
Cc1ccc(S(=O)(=O)CCC(=O)c2ccc(F)cc2)cc1,"inconclusive [cytotoxic, single point]",
Oc1ccccc1-c1nc(NC2CCCC2)c2ccccc2n1,"inconclusive [cytotoxic, single point]",
CCOc1ccc(OCC)c(-c2c(=O)n(OCc3ccc(C(C)(C)C)cc3)c3ccccc3[n+]2[O-])c1,inactive,

Compound,Potency,"activity, negative = toxicity"
Cc1ccc(NC(=O)c2ccccc2NS(=O)(=O)c2ccc(F)cc2)cc1S(=O)(=O)N1CCCCC1,"inconclusive [cytotoxic, partial curve, poor fit]",
Cc1ccc(Nc2nc(-c3ccc(O)c(O)c3)cs2)nc1,active: 23.1 µM,
COc1ccc(NC(=O)c2cccc(-c3ccc(O)cc3)c2)cn1,active: 2.06 µM,
CC(C)Cn1cc(C(=O)N2CCN(c3ccccn3)CC2)c2c3ccccc3n(C)c2c1=O,"inconclusive [cytotoxic, single point]",
Cc1ccc(OCCN2CCC2(C)C(=O)Nc2ccc3c(c2)OCCO3)cc1 (configuration not stated),inactive,
Cc1nc(SCC(=O)N2CCNC2=O)c2ccccc2n1,"inconclusive [cytotoxic, partial curve, poor fit]",
COc1ccc(NC(=O)C2(C)CCN2Cc2ccccc2Cl)cc1OC (configuration not stated),"inconclusive [cytotoxic, single point]",
CCN(CC1CCCN(CCc2cccc(F)c2)C1)C(=O)c1cc2ccccc2o1 (configuration not stated),"inconclusive [cytotoxic, single point]",
Cc1cccc(CSc2nc3ccccc3c(=O)n2C)c1,"inconclusive [cytotoxic, single point]",
CC(C)c1ccc(NC2CCCN(C(=O)c3cc(C(C)C)[nH]n3)C2)cc1 (configuration not stated),inactive,
CC(CNC(=O)Cn1ccc2cc(S(=O)(=O)N3CCCC3)ccc21)c1ccccc1 (configuration not stated),inactive,
COc1cccc(/C(O)=C/c2nc3ccc(C(=O)NCCc4cccc(C)c4)cc3[nH]c2=O)c1,"inconclusive [cytotoxic, partial curve]",
O=C(NCc1ccccn1)c1cc(-c2ccc(-c3ccccc3)cc2)nc2ccccc12,"inconclusive [cytotoxic, full curve]",
O=C(Cn1ncc(Cl)c(Cl)c1=O)NC(=O)NC1CCCCC1,active: 6.51 µM,
COc1cc(C(O)c2nc(-c3ccc4ccccc4c3)cs2)ccc1F (configuration not stated),"inconclusive [cytotoxic, single point]",
CCc1nc2c(OCC(=O)C(C)(C)C)cccn2c1N(C)C(=O)COc1ccccc1,inactive,
CCOC(=O)c1[nH]c(C)c(C(=O)Nc2cc(Cl)ccc2C)c1C,active: 0.0891 µM,
O=C(COC(=O)c1ccc(O)cc1)NC1CCCCCC1,inactive,
O=C(/C=C/c1ccco1)NC(=S)Nc1ccc(N2CCOCC2)c(Cl)c1,"inconclusive [cytotoxic, partial curve]",
NC(Cc1ccccc1)c1csc(Nc2cc(Oc3ccccc3)ncn2)n1 (configuration not stated),"inconclusive [cytotoxic, single point]",
CCOc1ccc(OCC(=O)Nc2ccc(OC)cc2[N+](=O)[O-])cc1,"inconclusive [rising, single point]",
COC(=O)[C@@]1(Cc2ccc(F)cc2)[C@H]2c3cc(C(=O)N4CCCC4)n(Cc4ccc(C)o4)c3C[C@H]2CN1C(=O)c1ccccc1,active: 20.6 µM,
COc1ccc(NC(=O)CC2C(=O)N(CCc3ccccc3)C(=S)N2Cc2cccnc2)cc1 (configuration not stated),"inconclusive [cytotoxic, single point]",
C=CCNC(=O)/C(C#N)=C/c1c(C)nn(-c2ccc(Cl)cc2)c1Cl,"inconclusive [cytotoxic, single point]",
